Experimental data: paper PMC12040169 (PLOS Biology, 2025)
Some of the results follow.

System: T1, C. trachomatis L2/434/Bu expressing GFP (CTL2-GFP)
T1 construct: L2/434/Bu GFP intracellular growth in HeLa cells
Parameters: species or system HeLa; C. trachomatis total inclusion area by high-content imaging, normalised to DMSO
Details: total inclusion area; 28.5 h, 10 µM; inhibitor
In short: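 Imaging read-out: GFP inclusions and Hoechst nuclei captured by high-content imaging after fixation. Inclusion area/number = chlamydial growth; nuclei count = host cell viability. MIC calculated per earlier method.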

Row | SMILES | % of control remaining
1 | CC(=O)NC1(c2ccc(F)cc2)CCN(C(=O)C(C)C)CC1 [CBK283491] | 86.8219
2 | COc1ccccc1-c1nccnc1NCCCO [CBK088971] | 167.398
3 | CC(C)(C)c1ccc(C(=O)NC(=S)Nc2ccc(O)c(-c3nc4cc(Cl)ccc4o3)c2)cc1 [CBK264169] | 121.259
4 | CC1CCC(C(=O)NC(Cc2ccccc2)C(=O)O)CC1 (centres unmarked) [CBK287080] | 99.4622
5 | COC(=O)CO[C@@H]1CO[C@H]2[C@@H]1OC[C@@H]2NC(=S)Nc1ccccc1 [CBK289459] | 113.586
6 | COc1ccc(Cl)cc1NS(=O)(=O)N1CCOCC1 [CBK269937] | 88.2754
7 | CS(=O)(=O)c1ccc(-c2ccc(CN3CCN(C(=O)Cc4ccc(F)cc4F)CC3)cn2)cc1 [CBK162618T] | 55.9572
8 | CCc1ccccc1S(=O)(=O)N1CCOC(c2cnn(CC)c2)C1 (centres unmarked) [CBK305421] | 41.5776
9 | Cc1cccnc1NC(=O)C(C)Oc1ccccc1 (centres unmarked) [CBK268643] | 130.511
10 | CC(OC(=O)c1ccc2c(c1)C(=O)N(c1ccc(Cl)cc1)C2=O)C(=O)c1ccccc1 (centres unmarked) [CBK156661] | 79.9371
11 | CCC(CN1CCOCC1)NC(=O)Cc1coc2cc(C)ccc12 (centres unmarked) [CBK282791] | 64.164
12 | COCc1cc(=O)n2ncc(-c3ccccc3)c2[nH]1 [CBK288168] | 90.7819
13 | Cc1nn(C)c(C)c1OCC(=O)Nc1sc2c(c1C#N)CCC2 [CBK306374] | 3.897
14 | Cc1ccccc1C(c1cnccn1)N(C)C(=O)C1CCN(S(=O)(=O)c2cn(C)cn2)CC1 (centres unmarked) [CBK060264] | 121.644
15 | FC(F)(F)c1cc(-c2ccccc2)nc2onc(OCCN3CCOCC3)c12 [CBK269392] | 95.242
16 | Cc1cnn(-c2cc(N3CCC(n4cc(C5CC5)nn4)CC3)ncn2)c1 [CBK306721] | 60.2341
17 | COc1ccc(-c2cnn3c(N)c4c(nc23)CCC4)cc1 [CBK287987] | 65.8228
18 | CN(Cc1nncn1C)C(=O)c1cnc2c(c1)c(C(C)(C)C)nn2C [CBK304154] | 80.3074
19 | COc1ccc(CN(CCCN2CCOCC2)C(=O)NCCCN2CCCC2=O)cc1OC [CBK159180] | 45.8436
20 | CC(C)CCNC(=O)N(CCc1ccccc1)Cc1ccccc1 [CBK155351] | 100.483
21 | COc1ccc(C(=O)Nc2nnc[nH]2)cc1 [CBK025569] | 130.058
22 | CCN(CC)C(=O)c1ccc(NS(=O)(=O)c2cc(F)c(Br)cc2F)cc1 [CBK034388] | 86.0101
23 | COc1ccc(CN(Cc2ccc(OC)cc2)Cc2ccc(S(=O)(=O)N3CCOC3=O)cc2)cc1 [CBK014818] | 116.759
24 | Cc1ccc(S(=O)(=O)N2CC(=O)NC2=S)cc1 [CBK023293] | 104.264
25 | CCCc1[nH]nc(O)c1CCc1c(Cl)cccc1Cl [CBK081403] | 87.7248
26 | CCCCc1ccc(NS(=O)(=O)c2ccc(C)c(C(=O)O)c2)cc1 [CBK296111] | 110.341
27 | COc1ccccc1CN(CN1C(=O)c2ccccc2C1=O)CN1C(=O)c2ccccc2C1=O [CBK265039] | 104.538

Row | SMILES | % of control remaining
28 | C=CCOc1ccc(Cl)cc1CNc1cccc(C(=O)O)c1 [CBK078460] | 100.429
29 | Cc1c(CN(C)C(=O)c2cccc(NC(=O)C3CCCO3)c2)cnn1C (centres unmarked) [CBK305416] | 40.2524
30 | CSc1nsc(SCC(=O)c2ccc(NC(C)=O)cc2)n1 [CBK268755] | 106.307
31 | CC(C(=O)Nc1cccc(F)c1)N1CCN(Cc2cccnc2)CC1 (centres unmarked) [CBK305408] | 36.675
32 | COc1cc(CN2CCN(C(=O)c3cccc(Cl)c3)CC2)cc(OC)c1OC [CBK074530] | 79.4695
33 | OCCCN1CCCN(c2ccnc(OCCN3CCOCC3)n2)CC1 [CBK083808] | 78.8713
34 | CCCNC(C)C(=O)Nc1c(C)csc1C(=O)O (centres unmarked) [CBK287064] | 103.395
35 | Cn1c(=O)c2c(nc(SCC(=O)O)n2C)n(C)c1=O [CBK262942] | 103.555
36 | CC(C)NC(=O)N1CCN2C(=O)N(c3ccccc3)C(=O)[C@@H]2C1 [CBK289579] | 110.31
37 | COc1cccc2sc(Nc3nc(-c4cccs4)cs3)nc12 [CBK287469] | 69.2392
38 | CCN(CCO)c1ccc(Nc2nc(-c3ccc(F)c(Cl)c3)cn3ccnc23)cc1 [CBK038042] | 118.995
39 | O=C(CN(c1ccc(I)cc1)S(=O)(=O)c1ccccc1)NCC1CCCO1 (centres unmarked) [CBK266278] | 125.598
40 | O=C(c1ncoc1-c1ccc(F)cc1)N1CCSCC1 [CBK282380] | 81.9092
41 | O=C1N=C(NC23CC4CC(CC(C4)C2)C3)OC1c1ccccc1 (centres unmarked) [CBK105263] | 58.3113
42 | COc1cc(S(=O)(=O)NC2CC(C)(C)NC(C)(C)C2)ccc1Br [CBK267908] | 95.1483
43 | OC[C@H]1O[C@@H](n2cnc3c(Cl)ncnc32)C[C@H]1O [CBK201167] | 102.391
44 | O=C(O)CSCC(=O)N1CCN(c2ccc(F)cc2)CC1 [CBK057269] | 100.198
45 | CC(O)CN(Cc1ccc(-c2ccccc2)cc1)Cc1ccc2c(c1)OCO2 (centres unmarked) [CBK286450] | 102.069
46 | CCCC(=O)c1ccc(S(=O)(=O)N2CCCN(Cc3cc(Br)cs3)CC2)cc1 [CBK062896] | 69.5135
47 | O=S(=O)(Nc1cc(OC2CCCNC2)c2occc2c1)c1cc(F)ccc1F (centres unmarked) [CBK073996C] | 43.035
48 | CCCCCNC(=O)NCCC1=CCCCC1 [CBK043796] | 97.8242
49 | O=C(O)[C@H]1CN(C(=O)c2ccco2)C[C@@H]1c1ccccc1F [CBK283820] | 89.8993
50 | CC(Cn1cc(Cl)cn1)C(=O)NC(C)C1CC2CCC1C2 (centres unmarked) [CBK281650] | 77.2622
51 | COc1ccccc1-c1cnc(N)c(N[C@H](C)c2ccccc2)n1 [CBK063705] | 138.136
52 | O=C(c1cc(O)nc2ccccc12)N1CCN(S(=O)(=O)N2CCCC2)CC1 [CBK297898] | 89.9942
53 | COc1ccc(CN(/N=N/c2nonc2C)c2nonc2C)cc1[N+](=O)[O-] [CBK262386] | 100.662
54 | CCCCC(=O)NCCc1ccc(S(N)(=O)=O)cc1 [CBK288360] | 65.1676

Row | SMILES | % of control remaining
55 | Cc1cc(C(=O)C(C)Oc2ccc(-c3nnco3)cc2)c(C)n1-c1ccccc1 (centres unmarked) [CBK297104] | 29.9615
56 | Cn1cc(CNS(=O)(=O)c2ccc(Br)c(F)c2)cn1 [CBK305539] | 77.2998
57 | O=C(c1ccc(-c2cnc3[nH]c(=O)n(C4CCCCC4)c3n2)cc1)N1CCOCC1 [CBK064566] | 135.334
58 | CN(CCCc1cnn(C)c1)c1nc(N)nc2c1CCCC2 [CBK306766] | 65.9901
59 | CCOc1ccc(S(=O)(=O)N2CCN(Cc3cc(C(=O)OC)n(C)c3)CC2)c2cccnc12 [CBK062796] | 73.7162
60 | Cc1nn(Cc2ccc(Cl)cc2)c(C)c1C(N)C(=O)O (centres unmarked) [CBK286661] | 73.9007
61 | O=C(NC1CC1)C1CCN(Cn2nnc3ccccc3c2=S)CC1 [CBK306342] | 68.2152
62 | CSCCC(=O)NCc1c(-c2ccccc2)noc1C [CBK144092] | 86.4731
63 | CCOC(=O)NC(=O)c1cn(N2CCOCC2)c(=O)[nH]c1=O [CBK004845] | 64.4819
64 | CC(C(=O)Nc1ccc(S(N)(=O)=O)cc1)N1CCCc2ccccc21 (centres unmarked) [CBK306108] | 60.7893
65 | Cc1ccccc1-c1nnc(SC(C)C)n1CCNCCO [CBK200084T] | 133.975
66 | Cc1cc(N2CCCC(N(C)S(=O)(=O)c3cccc(F)c3)CC2)nc(C)n1 (centres unmarked) [CBK285935] | 96.4892
67 | O=S(=O)(N1CCCCCC1)N1CCN(S(=O)(=O)N2CCOCC2)CC1 [CBK269152] | 117.324
68 | CC(C)(C)NC(=O)Cn1c(=O)n(Cc2cccs2)c2ncccc21 [CBK283844] | 58.933
69 | Cc1nc(=O)c(-c2ccccc2)c(C)n1-c1cccc(C(=O)O)c1 [CBK286965] | 43.3667
70 | COc1ccccc1NC(=O)c1c(NC(=O)c2cccs2)sc2c1CCC(C(C)(C)C)C2 (centres unmarked) [CBK264123] | 114.192
71 | Cc1nn(CCC#N)c(C)c1[C@@H]1C=C[C@@H](NS(=O)(=O)c2ccccc2)C1 [CBK288805] | 102.353
72 | COc1cccc(C(=O)/C=C\Nc2ccc(S(=O)(=O)Nc3onc(C)c3C)cc2)c1 [CBK264206] | 30.014
73 | COc1ccc(C(=O)Nc2ccc(C(C)=O)cc2)cc1[N+](=O)[O-] [CBK262457] | 95.1626
74 | CC(=O)Nc1cccc(NC(=O)N(CCC#N)C2CCCCC2)c1 [CBK156367] | 94.1776
75 | Cc1ccccc1C1(O)CCN(C(=O)C(c2cccs2)c2cccs2)CC1 [CBK286483] | 123.369
76 | O=C(NCCc1c[nH]c2ccccc12)NC(=O)C1CCNCC1 [CBK051094] | 99.0777
77 | O=C(O)c1cccc(NC(=O)c2ccc(S(=O)(=O)N3CCCCC3)cc2)c1 [CBK265185] | 94.1933
78 | O=C(Nc1ccc(F)cc1)N[C@H]1[C@H](O)[C@@H](N2CCCCC2)[C@@H]2OC[C@H]1O2 [CBK288826] | 120.858
79 | O=C(COc1ccc(Cl)cc1Cl)Nc1ccc2cc[nH]c2c1 [CBK160023] | 99.5392
80 | O=C(NCCOc1ccccc1)N1CCN(c2ccccc2)CC1 [CBK155198] | 90.9504
